Measurements as given in PMC3255987 (The Journal of Cell Biology, 2012).

Molecular target: recombinant Cyclin A2 (mouse, UniProt P51943)
Assay: pull-down

binding result: binds
B1: GST-RhoAWT (natural protein)
chain: not shown
